Measured values: PubChem BioAssay AID588453 (National Center for Advancing Translational Sciences (NCATS), 2011)
Hit rate of the full screen: of about 390,000 compounds, about 4,000 (1%) were called active. The shares of active, inactive and inconclusive entries below differ from those in the screen. Calls follow the shape of the dose curve; as a rule, active = well fitted inhibition curve with a large enough effect; inconclusive = small, poorly fitted or top-dose-only effect; inactive = no such curve, though single readings can be large or run the other way. Where the call is inconclusive, the potency comes from a doubtful curve fit.

target: Thioredoxin reductase 1, cytoplasmic (Rattus norvegicus) (UniProt O89049); assay: qHTS Assay for Inhibitors of Mammalian Selenoprotein Thioredoxin Reductase 1 (TrxR1): qHTS; conditions: recombinant rTrxR1, NADPH fluorescence consumption, selenite substrate; series mostly up to 114 µM; also: nearly all actives have a fitted effect of over 65% in size
In short: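 Rat TrxR1 (90 nM in the dispensed reagent) was pre-reduced with 400 uM NADPH for 5 min at room temperature, then incubated with compound for 15 min. After 400 uM selenite was added, NADPH fluorescence (Ex 340/Em 450 nm) was followed for 8 min.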
Potency is read from the fitted curve at half-maximal effect; tags tell the direction and shape of the fitted curve.

UniProt O89049, sequence (O89049 whole entry, looked up): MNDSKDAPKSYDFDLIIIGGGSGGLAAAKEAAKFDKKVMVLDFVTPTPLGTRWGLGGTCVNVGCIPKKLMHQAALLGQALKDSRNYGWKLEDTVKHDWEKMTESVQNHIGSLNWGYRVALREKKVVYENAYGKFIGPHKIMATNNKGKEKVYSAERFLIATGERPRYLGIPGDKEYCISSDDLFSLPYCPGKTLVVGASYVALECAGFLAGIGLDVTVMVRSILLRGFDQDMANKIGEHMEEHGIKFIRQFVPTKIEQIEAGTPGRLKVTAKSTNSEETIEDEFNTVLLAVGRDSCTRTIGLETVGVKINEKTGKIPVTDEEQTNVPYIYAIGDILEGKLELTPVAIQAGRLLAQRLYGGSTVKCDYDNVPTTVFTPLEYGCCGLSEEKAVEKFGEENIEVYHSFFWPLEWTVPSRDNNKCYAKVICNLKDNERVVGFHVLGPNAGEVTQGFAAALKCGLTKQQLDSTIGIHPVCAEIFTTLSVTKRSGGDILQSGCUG

**Q.** How did the Potency turn out when `c1ccc2sc(-c3ccncc3)nc2c1` was run?
**A.** inactive

**Q.** `Cc1ccc(Nc2c(-c3ccc(Br)o3)nc3ccccn23)cc1` was tested. Which Potency did it give?
**A.** inconclusive: 79.4 µM [inhibitor, partial curve, poor fit]

**Q.** How did the Potency turn out when `OC[C@@H](O)[C@H](O)C(/C=N/Nc1ccccc1)=N\Nc1ccccc1` was run?
**A.** inconclusive: 20 µM [inhibitor, partial curve, poor fit]

**Q.** With `CCN(CC)S(=O)(=O)c1ccc(C(=O)OCC(=O)NCc2ccco2)cc1` as the molecule, how does the Potency read?
**A.** inconclusive: 89.1 µM [inhibitor, single point]

**Q.** Which Potency does the source give for `CC1=NN2C(=N)/C(=C\c3cc(C)n(-c4cccc(C)c4)c3C)C(=O)N=C2S1` here?
**A.** inactive

**Q.** Which Potency does the source give for `c1ccc(Nc2nc(N3CCNCC3)nc(N3CCOCC3)n2)cc1` here?
**A.** inconclusive: 44.7 µM [inhibitor, partial curve, poor fit]

**Q.** For `O=C(Oc1ccccc1/C=C\C(=O)c1cc2ccccc2o1)c1ccccc1`, which Potency is on record?
**A.** inconclusive: 56.2 µM [inhibitor, single point]

**Q.** How did the Potency turn out when `CNC(=S)N/N=C/c1ccco1` was run?
**A.** inconclusive: 79.4 µM [inhibitor, single point]

**Q.** Which Potency does the source give for `O=C(c1noc2c1CCc1ccccc1-2)N1CCOCC1` here?
**A.** inconclusive: 15.8 µM [inhibitor, full curve]

**Q.** For `CC(=O)c1cccc(Oc2cc(NN3CCCCC3)c([N+](=O)[O-])cc2[N+](=O)[O-])c1`, which Potency is on record?
**A.** inactive

**Q.** `Cc1ccccc1NC(=O)c1c(C)oc2ccc(O)c(CN3CCOCC3)c12` was tested. Which Potency did it give?
**A.** inactive

**Q.** For `CCCCn1c(N)c(N(CC(C)C)C(=O)c2ccc(-n3c(C)ccc3C)cc2)c(=O)[nH]c1=O`, which Potency is on record?
**A.** inconclusive: 89.1 µM [inhibitor, single point]

**Q.** How did the Potency turn out when `O=C(NC(=O)c1c(F)cccc1F)Nc1cccc(Oc2ncc(Cl)cn2)c1` was run?
**A.** inactive

**Q.** Which Potency does the source give for `O=C(CSc1n[nH]c(-c2ccccc2Cl)n1)NCc1ccc(F)cc1` here?
**A.** inactive

**Q.** `Cc1cccc(NCc2ccc(O)c3ncccc23)c1` was tested. Which Potency did it give?
**A.** active: 0.794 µM

**Q.** Which Potency does the source give for `O=C1NN(c2cccc(Br)c2)C(=O)/C1=C\c1ccc(O)cc1` here?
**A.** inconclusive: 5.62 µM [inhibitor, partial curve, poor fit]

**Q.** Which Potency does the source give for `COc1ccc(Oc2nc(-c3ccccn3)nc3ccccc23)cc1` here?
**A.** inactive

**Q.** With `O=C(Nc1ccc2c(c1)OCCO2)c1ccc2nccnc2c1` as the molecule, how does the Potency read?
**A.** inconclusive: 8.91 µM [inhibitor, partial curve, poor fit]

**Q.** How did the Potency turn out when `O=c1cc(N2CCN(Cc3ccccc3)CC2)[nH]c(=O)n1Cc1ccc(F)cc1` was run?
**A.** inconclusive: 8.91 µM [inhibitor, full curve]

**Q.** For `CC1CCCCC1NC(=O)c1cn(C)c2ccc(S(=O)(=O)N3CCCC3)cc2c1=O` (stereo not given), which Potency is on record?
**A.** inactive
